The record followed here is the supplement of paper PMC3334620.

The full ranking holds about 33,000 sequences; the median of “E-score (-0.5 to 0.5)” is about -0.012, and the highest 2% start at about 0.29. This is one part of the list.

The assay deals with T1, Ybr033w (UniProt P38073).
T1 sequence: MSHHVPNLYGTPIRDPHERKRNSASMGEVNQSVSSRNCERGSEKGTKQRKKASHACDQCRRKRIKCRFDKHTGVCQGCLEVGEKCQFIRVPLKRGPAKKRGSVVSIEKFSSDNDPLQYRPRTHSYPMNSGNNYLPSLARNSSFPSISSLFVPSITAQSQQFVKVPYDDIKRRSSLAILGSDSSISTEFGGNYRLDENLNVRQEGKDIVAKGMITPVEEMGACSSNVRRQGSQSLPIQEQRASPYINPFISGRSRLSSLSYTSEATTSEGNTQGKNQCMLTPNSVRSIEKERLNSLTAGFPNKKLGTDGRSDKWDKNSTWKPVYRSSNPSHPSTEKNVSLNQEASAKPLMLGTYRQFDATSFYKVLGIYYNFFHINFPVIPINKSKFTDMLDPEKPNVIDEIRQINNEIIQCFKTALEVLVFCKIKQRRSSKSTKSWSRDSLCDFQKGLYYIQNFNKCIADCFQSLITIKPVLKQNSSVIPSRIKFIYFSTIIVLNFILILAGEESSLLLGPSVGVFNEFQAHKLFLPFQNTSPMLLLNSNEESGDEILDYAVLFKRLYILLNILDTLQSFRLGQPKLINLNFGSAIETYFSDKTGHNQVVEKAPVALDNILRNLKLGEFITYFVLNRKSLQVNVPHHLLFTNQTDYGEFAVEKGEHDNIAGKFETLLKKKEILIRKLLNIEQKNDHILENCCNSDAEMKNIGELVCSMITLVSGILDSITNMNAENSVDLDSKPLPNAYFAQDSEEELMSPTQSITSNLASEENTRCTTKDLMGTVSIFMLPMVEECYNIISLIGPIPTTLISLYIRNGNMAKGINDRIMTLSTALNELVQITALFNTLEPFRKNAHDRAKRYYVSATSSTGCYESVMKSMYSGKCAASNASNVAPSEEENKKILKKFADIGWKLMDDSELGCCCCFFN
Put plainly: PBM E-score (8-mer binding enrichment) (E-score (-0.5 to 0.5)); higher = stronger / more preferred TF binding; most listed sequences are background and not binding sites. The following applies: protein concentration: 200 nM; construct: GST-full length. The procedure, abridged:
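Full-length yeast transcription factors or their DNA-binding domains, GST-tagged and expressed with PURExpress, were applied at about 100-200 nM to universal all-10-mer Agilent arrays. These arrays had been made double-stranded by primer extension on fresh or once-stripped slides. Detection used fluorescent anti-GST, normalisation used masliner, and E-scores for ungapped eight-base words pooled with reverse complements came from the Universal PBM Analysis Suite.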
As for GACTCTAA, the “PBM E-score” value came out at 0.115. The value for TCATCCCA was -0.0103; that for AGTATTCA was 0.142. In the case of CCGGATAG, the “PBM E-score” value stood at 0.0368. The value for ACCAAAAG was 0.135; that for GGGGCATA was -0.14; that for AATGCAGC was -0.0861. Regarding AAAACGGG, the “PBM E-score” value is 0.036. As for AGGCAGCC, the “PBM E-score” value is -0.0856.

As for AATTGGGG, the “PBM E-score” value is -0.223. On to GAAGCTCA, for which the “PBM E-score” value was -0.0233.

CGCCTCCC: the “PBM E-score” value is -0.375. On to AGAATGAA, for which the “PBM E-score” value amounted to 0.184. For the sequence AGACGGTA, the “PBM E-score” value was determined as 0.033. In the case of TCGGCTAA, the “PBM E-score” value is 0.0162. With TAGTTGGA, the “PBM E-score” value stood at 0.174. With AACCCGTT, the “PBM E-score” value was -0.114. Then GCTCAGAC, with 0.0418; and CACCCAGC, with -0.284. As to ACTCGAGT, the “PBM E-score” value stood at 0.111. Take ACACGGTA: the “PBM E-score” value was 0.0624. In the case of ACAACGGT, the “PBM E-score” value is -0.167. TAGCTGCA: the “PBM E-score” value is -0.177. With ATATGGGC, the “PBM E-score” value was -0.0129. The value for AAACGATG was 0.162. Take CCACCGAC: the “PBM E-score” value is -0.0879. For AATCCTGC, the “PBM E-score” value was -0.0851. On to AAAGAGAT, for which the “PBM E-score” value is 0.0748. As for TACAGATA, the “PBM E-score” value was 0.291. Regarding GAAGAGCA, the “PBM E-score” value is -0.153. For ACGCGCAC, the “PBM E-score” value is -0.0175. For the sequence CTTGCTTA, the “PBM E-score” value was 0.0963. Then CCACGCAA, with 0.0511.

Take CAAGAGCA: the “PBM E-score” value is -0.19. The value for ATCCACCA was 0.05. Then GAAAAGGC, with -0.0286; and ATATGCCA, with 0.167. With AACCCGGT, the “PBM E-score” value was -0.135. For the sequence TACACCGA, the “PBM E-score” value was -0.0283. The value for TCAACAAA was 0.167. For GTGCCTGA, the “PBM E-score” value was -0.0516. AACACATA: the “PBM E-score” value was determined as 0.247.

Regarding AAGTCCCC, the “PBM E-score” value is -0.285. For CTATGAGC, the “PBM E-score” value is -0.0638. For CATAGTAG, the “PBM E-score” value was found to be 0.087. The value for AAGTACGG was -0.0591. Turning to TAGCTAGA, the “PBM E-score” value was -0.00952. As for GAGGGTGA, the “PBM E-score” value was -0.135. Then AACCCGGG, with -0.111. On to GAACAACC, for which the “PBM E-score” value came out at 0.241. Then CACGACTC, with 0.0534; and AATGCCGC, with 0.0501. As for CGGCACCG, the “PBM E-score” value was -0.208. In the case of CAAACTTG, the “PBM E-score” value is 0.0901. Take ATTGTAAG: the “PBM E-score” value was -0.0101. On to CAATGCTC, for which the “PBM E-score” value was -0.00261. As for GCAGTCGC, the “PBM E-score” value is -0.239. Consider GGCCGTGA, for which the “PBM E-score” value was -0.206. In the case of ATAGGGGA, the “PBM E-score” value was -0.197. For GACGTTGC, the “PBM E-score” value is 0.0121. Take ATATCATA: the “PBM E-score” value worked out at 0.248. As for ATATGCGC, the “PBM E-score” value came out at 0.047.

With ATGAGGCA, the “PBM E-score” value is -0.13.

For the sequence CATCCAAC, the “PBM E-score” value was 0.128. As for CTTATAGC, the “PBM E-score” value came out at 0.0209. Consider AGGTACCC, for which the “PBM E-score” value was -0.263. Then ACTAAGCT, with 0.205; and CACCACCG, with -0.312. On to AGACTGCC, for which the “PBM E-score” value is -0.219. For AGCCAGTC, the “PBM E-score” value is -0.195. The value for CCGTGGGC was -0.0714; that for AGAAGCGG was -0.103. As for AGTATGAA, the “PBM E-score” value stood at 0.182. Take AGTTTGAG: the “PBM E-score” value is 0.0877. Then ACTACAGG, with 0.145.

As to CAGAGGGC, the “PBM E-score” value is -0.151. With ACTCGGAC, the “PBM E-score” value turned out to be 0.0175. With CTACCAGC, the “PBM E-score” value is -0.0422.

As to ATGACGAA, the “PBM E-score” value worked out at 0.2. Turning to GATTCTAC, the “PBM E-score” value is -0.0106. Turning to GTGATTAA, the “PBM E-score” value stood at 0.291. Regarding AAAAGTCG, the “PBM E-score” value worked out at 0.00288. As to ACGGAATC, the “PBM E-score” value was 0.113. For TCGAGAGA, the “PBM E-score” value is -0.0808. Regarding GCACGACA, the “PBM E-score” value was -0.251. Consider CCCGGTTA, for which the “PBM E-score” value is -0.354.

As to ACCCTGTG, the “PBM E-score” value is -0.0604. ATACTCCA: the “PBM E-score” value turned out to be 0.00821. On to GCAGCCAC, for which the “PBM E-score” value was -0.0203. Regarding CGAACTCA, the “PBM E-score” value was -0.124. As to CGGCCGCA, the “PBM E-score” value was -0.208. The value for AAACCAGT was 0.079.

In the case of CAATCTCA, the “PBM E-score” value turned out to be 0.0287. The value for AAACGCGT was 0.00157; that for GCGGTTCC was -0.0683; that for AACTCCAT was 0.166. For GATGTCGA, the “PBM E-score” value was -0.0381. Turning to CTAAGCCC, the “PBM E-score” value is -0.289. On to TAGGAGCA, for which the “PBM E-score” value is -0.212. On to AGTTTGCG, for which the “PBM E-score” value was -0.0516. Consider AATATTTC, for which the “PBM E-score” value was determined as 0.34. Consider CGATCGTA, for which the “PBM E-score” value is -0.088.

Take AAGAATGG: the “PBM E-score” value was determined as 0.131. For CTGCCCTA, the “PBM E-score” value was -0.129.

Regarding AACTGGCG, the “PBM E-score” value was 0.0107. For AAGGTAAT, the “PBM E-score” value amounted to 0.139.

As for CTACCTAG, the “PBM E-score” value was -0.243. Take CGAGGGAC: the “PBM E-score” value was -0.406. The value for TCCTATCA was -0.0135.
